Reference: the RNAGym collection of RNA variant scans (doi:10.1101/gad.245936.114)
Variants at the floor of the assay are shown more often than the library holds them.

B1: tRNA (parent)
chain: CUCUCGGUAGCCAAGUUGGUUUAAGGCGCAAGACUUUAAUUUAUCACUACGAAAUCUUGAGAUCGGGCGUUCGACUCGCCCCCGGGAGAUUUUUUCCUCGAGCAA

Variants of: B1
Assay: nonsense suppression (GFP-seq) (ratio to wild type); higher = more function; SUP4oc tRNA, yeast GFP reporter sort-seq
In short: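 Raffinose/galactose medium with 80 mg/L adenine was used to grow yeast carrying genome-integrated tRNA variants (~3% random-mutation library), RFP, and a galactose-driven GFP ochre reporter. Cells went into GFP/RFP bins, which were Illumina-sequenced, and variants with ≥100 reads and ≥30 cells were scored. Nonsense suppression (GFPSEQ) is the per-bin median GFP/RFP weighted by estimated cell share and expressed relative to the unmutated parent tRNA.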

Row | Variant | nonsense suppression
1 | CUUUCGGUAGCCAAGUUGGUUUAAGGCGCAAUACUUUAAUUUAUCACUACGAAAUCUUGAGAUCGGGCGUUCGACUCGCCCCCGGGAGUUUUUUUCCUCGAGCAA | ≤ 0.026
2 | CUUUCGGUAGCCAAGUUGGUUUAAGGCGCAAUACUUUAAUUUAUCACUACGAAAUCUUGAGAUCGGGCGUUCGACUCACCCCCGGGAGAUUUUUUCCUCGAGCAA | ≤ 0.026
3 | CUUUCGGUAGCCAAGUUGGUUUAAGGCGCAAGACUUUAAUUUAUCACUACGAAAUCUUCAGAUCGGGCGUUCGACUCGCCCCCGGGAGAUUUUUUCCUCGAGCAA | ≤ 0.026
4 | CUUUCGGUAGCCAAGUUGGUUUAAGGCGCAAGACUUUAAUUUAUCACUACGAAAUCUUCUGAUCGGGCGUUCGACUCGCCCCCGGGAGAUUUUUUCCUCGAGCAA | ≤ 0.026
5 | CUUUCGGUAGCCAAGUUGGUUUAAGGCGCAAGACUUUAAUUUAUCACUACGAAAUCUUGAAAUCGGGCGUUCGACUCGCCCCCGGGAGAUUUUUUCCUCGAGCAA | 0.198
6 | CUUUCGGUAGCCAAGUUGGUUUAAGGCGCAAGACUUUAAUUUAUCACUACGAAAUCUUGAAAUCGGGCGUUCGACUGGCCCCCGGGAGAUUUUUUCCUCGAGCAA | ≤ 0.026
7 | CUUUCGGUAGCCAAGUUGGUUUAAGGCGCAAGACUUUAAUUUAUCACUACGAAAUCUUGACAUCGGGCGUUCGACUCGCCCCCGGGAGAUUUUUUCCUCGAGCAA | 0.164
8 | CUUUCGGUAGCCAAGUUGGUUUAAGGCGCAAGACUUUAAUUUAUCACUACGAAAUCUUGACAUCGGGCGUUCGCCUCGCCCCCGGGAGAUUUUUUCCUCGAGCAA | ≤ 0.026
9 | CUUUCGGUAGCCAAGUUGGUUUAAGGCGCAAGACUUUAAUUUAUCACUACGAAAUCUUGAGAUCAGGCGUUCGACUCGCCCCCGGGAGAUUUUUUCCUCGAGCAA | ≤ 0.026
10 | CUUUCGGUAGCCAAGUUGGUUUAAGGCGCAAGACUUUAAUUUAUCACUACGAAAUCUUGAGAUCGUGCGUUCGACUCGCCCCCGGGAGAUUUUUUCCUCGAGCAA | ≤ 0.026
11 | CUUUCGGUAGCCAAGUUGGUUUAAGGCGCAAGACUUUAAUUUAUCACUACGAAAUCUUGAGAUCGGACGUUCGACUCGCCCCCGGGAGAUUUUUUCCUCGAGCAA | ≤ 0.026
12 | CUUUCGGUAGCCAAGUUGGUUUAAGGCGCAAGACUUUAAUUUAUCACUACGAAAUCUUGAGAUCGGGCGUUCGACUCACCCCCGGGAGAUUUUUUCCUCGAGCAA | 0.0608
13 | CUUUCGGUAGCCAAGUUGGUUUAAGGCGCAAGACUUUAAUUUAUCACUACGAAAUCUUGAGAUCGGGCGUUCGACUCCCCCCCGGGAGUUUUUUUCCUCGAGCAA | ≤ 0.026
14 | CUUUCGGUAGCCAAGUUGGUUUAAGGCGCAAGACUUUAAUUUAUCACUACGAAAUCUUGAGAUCGGGCGUUCGACUCGCCCCCCGGAGAUUUUUUCCUCGAGCAA | ≤ 0.026
15 | CUUUCGGUAGCCAAGUUGGUUUAAGGCGCAAGACUUUAAUUUAUCACUACGAAAUCUUGAGAUCGGGCGUUCGACUCGCCCCCGUGAGAUUUUUUCCUCGAGCAA | ≤ 0.026
16 | CUUUCGGUAGCCAAGUUGGUUUAAGGCGCAAGACUUUAAUUUAUCACUACGAAAUCUUGAGAUCGGGCGUUCGACUCGCCCCCGGUAGAUUUUUUCCUCGAGCAA | ≤ 0.026
17 | CUUACGGUAGCCAAGUUGGUUUAACGCGCAAGACUUUAAUUUAUCACUACGAAAUCUUGAGAUCGGGCGUUCGACUCGCCCCCGGGAGAUUUUUUCCUCGAGCAA | ≤ 0.026
18 | CUUCCGGUAGCCAAGUUGGUUUAAGGCGCAAGACUUUAAUUUAUCACUACGAAAUCUUGAGAUCGGGCGUUCGACUCGCCCCCGGGAGAUUUUUUCCUCGAGCAA | 0.859
19 | CUUCCGGUAGCCAAGUUGGUUUAAGGAGCAAGACUUUAAUUUAUCACUACGAAAUCUUGAGAUCGGGCGUUCGACUCGCCCCCGGGAGAUUUUUUCCUCGAGCAA | ≤ 0.026
20 | CUUGCGGUAGCCAAGUUGGUUUGCGGCGCAAGACUUUAAUUUAUCACUACGAAAUCUUGAAAUCGGGCGUUCGACUCGCCCCCGGGAGAUUUUUUCCUCGAGCAA | ≤ 0.026
21 | CUUGCGGUAGCCAAGUUGGUUUAAUGGGCAAGACUUUAAUUUAUCACUACGAAAUCUUGAGAUCGGGCGUUCGACUCGCCCCCGGGAGAUUUUUUCCUCGAGCAA | ≤ 0.026
22 | CUUUCGGCAGCCAAGUUGGUUUAAGGCGCAAGAGUUUAAUUUAUCACUACGAAAUCUUGAGAUCGGGCGUUCGACUCGCCCCCCGGAGAUUUUUUCCUCGAGCAA | ≤ 0.026
23 | CUUUCGGGAGCCAAGUUGGUUUACGGCGCACGACUUUAAUUUAUCACUACGAAAUCUUGCGAUCGGGCGUUCGACUCGCUCCCGGGAGAUUUUUUCCUCGAGCAA | ≤ 0.026
24 | CUUUCGGGAGCCAAGUUGGUUUAAGGCGCGAGACUUUAAUUUAUCACUACGAAAUCUUCAGACCGGGCGUUCUACUCGCCCCCGGGAGAUUUUUUCCUCGAGCAA | ≤ 0.026
25 | CUUUCGGGAGCCAAGUUGGUUUAAGGCGCAAGACUUUAAUUUAUCACUACGAAUUCUGGAGAUCGGGCGUUCGACUCGCCCCUGGGAGAUUUUUUCCUCGAGCAA | ≤ 0.026
26 | CUUUCGGGAGCCAAGUUGGUUUAAGGGGCAAGACUUUAAUUUAUCACUACGAAAUCUAGAGAUCGGGCGUUCGACUCGCCCCCGGGAGAUUUUUUCCUCGAGCAA | ≤ 0.026
27 | CUUUCGGGAGCCAAGUUGGUUUAAGGCGCAAGACUUUAAUUUAUCACUACGAAAUCUUGAGAUCGGGCGUUCGACCCGCCCCCGGGAGAUUUUUUCCUCGAGCAA | ≤ 0.026

Row | Variant | nonsense suppression
28 | CUUUCGGUAGCCAAGGUGGUUUAAGGCGCAAGACUUUAAUUUAUCACUACGAAAUCUUGAGAUCGGGCGUUCGACUCGCCCCCGGGAGAUUUUUUCCUCGAGCAA | 0.22
29 | CUUUCGGUAGCCAAGGUGGUUUAAGGCGCAAGACUUUAAUUUAUCACUACGAAAUGUUGAGAUCGGGCUUUCGACUCGCCCCCGGGAGAUUUUUUCCUCGAGCAA | ≤ 0.026
30 | CUUUCGGUAGCCAAGGUUGUUUAAGGCGCAAGACUUUAAUUUAUCACUACGAAAUCCUGAGAUCGGGCGUUCGACUCGCCCCCGGGAGAUUUUUUCCUCGAGCAA | ≤ 0.026
31 | CUUUCGGUAGCCAAGUAGGUUUAAGGCGCAAGACUUUAAUUUAUCACUACGAAAUCUUGAGAUCGGGCGUUCGACUCGCCCCCGGGAGAUUUUUUCCUCGAGCAA | 0.194
32 | CUUUCGGUAGCCAAGUAGGUUUUAGGCGCAAGACUUUAAUUUAUCACUACGAAAUCUUGAGAUCGGGCGUUCGACUCGCCCCCGGGAGAUUUUUUCCUCGAGCAA | ≤ 0.026
33 | CUUUCGGUAGCCAAGUGGGUUUAAGGCUCAAGACUUUAAUUUAUCACUACGAAAUCUUGAGAACGGGCGGUCGUCUCGCCCCCGGGAGAUUUUUUCCUCGAGCAA | ≤ 0.026
34 | CUUUCGGUAGCCAAGUUGGAUUAAGGCGCAAGAUUUUAAUUUAUCACUACGAAAUCUUGAGAUCGGGCGUUCAACUCGCCCCCGGGAGAUUUUUUCCUCGAGCAA | ≤ 0.026
35 | CUUUCGGUAGCCAAGUUGGAUUAAGGCCCAAGACUUUAAUUUAUCACUACGAAAUGUUGAGAUCGGGCGUUCGACUCGCCCCCGGGAGAUUUUUUCCUCGAGCAA | ≤ 0.026
36 | CUUUCGGUAGCCAAGUUGGCUUAAGGCGCAAGACUUUAAUUUAUCACUACGAAAUCUUGAGAUCGGGCGUUCGACUCGCCCCCGGGACAUUUUUUCCUCGAGCAA | ≤ 0.026
37 | CUUUCGGUAGCCAAGUUGGGUUAAGGCGCAAGACUUUAAUUUAUCACUACGAAAUCUUGAGAUCGGGCGUUCGACUCGCCCCCGGGAGAUUUUUUCCUCGAGCAA | 0.194
38 | CUUUCGGUAGCCAAGUUGGGUUAAGGCGCAAGACUUUAAUUUAUCACUACGAAAUCUUAAGAUCGGGCGUUCGACUCGCCCCCGGGAGAUUUUUUCCUCGAGCAA | ≤ 0.026
39 | CUUUCGGUAGCCAAGUUGGUGUAAGGCGCAAGACUUUAAUUUAUCACUACGAAAUCUUGAGAUCGGGCGUUCGACUCGCCCCCGCGAGAUUUUUUCCUCGAGCAA | 0.417
40 | CUUUCGGUAGCCAAGUUGGUUCAAGGCGCAAGACUUUAAUUUAUCACUACGAAAUCUUGAGAUCGGGCGUUCGACUCGCCCCCGGGAGAUUUUUUCCUCGAGCAA | 0.304
41 | CUUUCGGUAGCCAAGUUGGUUCAGGGCGCAAGACUUUAAUUUAUCACUACGAAAUCUUGAGAUCGGGCGUUCGACUCGCCCCCGGGAGAUUUUUUCCUCGAGCAA | ≤ 0.026
42 | CUUUCGGUAGCCAAGUUGGUUCAAGGCGCAAGACUUUAAUUUAUCACUACGAAAUCUUGAGAUCGGGCGUUCGACUCGCCCCCGGGCGAUUUUUUCCUCGAGCAA | ≤ 0.026
43 | CUUUCGGUAGCCAAGUUGGUUGCAGGCGCUAGACUUUAAUUUAUCACUACGAAAUCUUGAGAUCGGGCGUUCGACUCGCCCCCGGGAGAUUUUUUCCUCGAGCAA | ≤ 0.026
44 | CUUUCGGUAGCCAAGUUGGUUUAAGGCGCAAGACAUUAAUUUAUCACUACGAAAUCUUGAGAUCGGGCGUUCGACUCGCCCCCGGGAGAUUUUUUCCUCGAGCAA | ≤ 0.026
45 | CUUUCGGUAGCCAAGUUGGUUUAAGGCGCAAGACCUUAAUUUAUCACUACGAAAUCUUGAGAUCGGGCGUUCGACUCGCCCCCGGGAGAUUUUUUCCUCGAGCAA | ≤ 0.026
46 | CUUUCGGUAGCCAAGUUGGUUUAAGGCGCAAGACCUUAAUUUAUCACUACGAAAUCUUGAGAUCGGGCGUUCAACUCGCCCCCGGGAGAUUUUUUCCUCGAGCAA | ≤ 0.026
47 | CUUUCGGUAGCCAAGUUGGUUUAAGGCGCAAGACGUUAAUUUAUCACUACGAAAUCUUGAAAUCGGGCGUUCGACUCGCCCCCGGGAGAUUUUUUCCUCGAGCAA | ≤ 0.026
48 | CUUUCGGUAGCCAAGUUGGUUUAAGGCGCAAGACUUUAAUUUAUCACUACGAAAUCGUGAGAUCGGGCGUUCGACUCGCCCCCGGGAGAUUUUUUCCUCGAGCAA | ≤ 0.026
49 | CUUUCGGUAGCCAAGUUGGUUUAAGGCGCAAGACUUUAAUUUAUCACUACGAAAUCUUGAGACCGGGCGUUCGACUCGUCCCCGGGAGAUUUUUUCCUCGAGCAA | ≤ 0.026
50 | CUUUCGGUAGCCAAGUUGGUUUAAGGCGCAAGACUUUAAUUUAUCACUACGAAAUCUUGAGAGCGGGCGUUCGACUCGCCCCCGGGAGAUUUUUUCCUCGAGCAA | ≤ 0.026
51 | CUUUCGGUAGCCAAGUUGGUUUAAGGCGCAAGACUUUAAUUUAUCACUACGAAAUCUUGAGAUCGGGCGUACGACUCGCCCCCGGCAGAUUUUUUCCUCGAGCAA | ≤ 0.026
52 | CUUUCGGUAGCCAAGUUGGUUUAAGGCGCAAGACUUUAAUUUAUCACUACGAAAUCUUGAGAUCGGGCGUUCGACCCGCCCCCGGGAGAUUUUUUCCUCGAGCAA | 0.17
53 | CUCACGGUGGCCAAGUUGGUUUAAGGCGCAAGACUUUAAUUUAUCACUACGAAAUCUUGAGAUCGGGCGUUCUACUUGCCCCCGGUAGAUUUUUUCCUCGAGCAA | ≤ 0.026
54 | CUCACGGUUGCCAAGUUGGUUUAAGGCGCAAGACUUUAAUUUAUCACUACGAAAUCUUGAGAUCGGGCGUUCGACUCGCCCCAGGGAGAUUUUUUCCUCGAGCAA | ≤ 0.026
